# Some of the results follow.
# Assays:
# Experiment in all cases: glycan array binding signal (z-score within array); higher = stronger binding
# Conditions in all cases: glycan notation: IUPAC condensed, linker removed
# Gal(a1-3)Gal(b1-3)GlcNAc = target: Gal(a1-3)Gal(b1-3)GlcNAc
# Summary of the method: (§1)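 The binding signal is a Z-score computed within each array. Data were drawn from 3228 arrays in the Consortium for Functional Glycomics database, restricted to those with a known protein sequence. Scores were averaged over arrays of the same protein sequence at different concentrations or buffers, and over linkers, and negative values can be taken as non-binding.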
# [1] = target: Gal(a1-3)Gal(b1-3)GlcNAc(b1-2)Man
# Summary of the method: as §1
# [2] = target: Gal(a1-3)Gal(b1-3)GlcNAc(b1-2)Man(a1-3)[Gal(a1-3)Gal(b1-3)GlcNAc(b1-2)Man(a1-6)]Man(b1-4)GlcNAc(b1-4)GlcNAc
# Summary of the method: as §1
# [3] = target: Gal(a1-3)Gal(b1-3)GlcNAc(b1-3)GalNAc
# Summary of the method: as §1
# [4] = target: Gal(a1-3)Gal(b1-3)GlcNAc(b1-6)GalNAc
# Summary of the method: as §1
# [5] = target: Gal(a1-3)Gal(b1-3)[Fuc(a1-4)]GlcNAc(b1-2)Man(a1-3)[Gal(a1-3)Gal(b1-3)[Fuc(a1-4)]GlcNAc(b1-2)Man(a1-6)]Man(b1-4)GlcNAc(b1-4)GlcNAc
# Summary of the method: as §1
# Gal(a1-3)Gal(b1-4)Glc = target: Gal(a1-3)Gal(b1-4)Glc
# Summary of the method: as §1
# Gal(a1-3)Gal(b1-4)GlcNAc = target: Gal(a1-3)Gal(b1-4)GlcNAc
# Summary of the method: as §1
# [6] = target: Gal(a1-3)Gal(b1-4)GlcNAc(b1-2)Man
# Summary of the method: as §1
# [7] = target: Gal(a1-3)Gal(b1-4)GlcNAc(b1-2)Man(a1-3)[Gal(a1-3)Gal(b1-4)GlcNAc(b1-2)Man(a1-6)]Man(b1-4)GlcNAc(b1-4)GlcNAc
# Summary of the method: as §1
# [8] = target: Gal(a1-3)Gal(b1-4)GlcNAc(b1-3)GalNAc
# Summary of the method: as §1
# [9] = target: Gal(a1-3)Gal(b1-4)GlcNAc(b1-6)GalNAc
# Summary of the method: as §1
# [10] = target: Gal(a1-3)Gal(b1-4)[Fuc(a1-3)]GlcNAc
# Summary of the method: as §1
# [11] = target: Gal(a1-3)Gal(b1-4)[Fuc(a1-3)]GlcNAc(b1-2)Man(a1-3)[Gal(a1-3)Gal(b1-4)[Fuc(a1-3)]GlcNAc(b1-2)Man(a1-6)]Man(b1-4)GlcNAc(b1-4)GlcNAc
# Summary of the method: as §1
# Gal(a1-3)GalNAc = target: Gal(a1-3)GalNAc
# Summary of the method: as §1
# [12] = target: Gal(a1-3)[Gal(a1-4)]Gal(b1-4)GlcNAc
# Summary of the method: as §1
# [13] = target: Gal(a1-4)Gal(b1-3)GlcNAc(b1-2)Man(a1-3)[Gal(a1-4)Gal(b1-3)GlcNAc(b1-2)Man(a1-6)]Man(b1-4)GlcNAc(b1-4)GlcNAc
# Summary of the method: as §1
# Gal(a1-4)Gal(b1-4)Glc = target: Gal(a1-4)Gal(b1-4)Glc
# Summary of the method: as §1
# Gal(a1-4)Gal(b1-4)GlcNAc = target: Gal(a1-4)Gal(b1-4)GlcNAc
# Summary of the method: as §1
# [14] = target: Gal(a1-4)Gal(b1-4)GlcNAc(b1-2)Man(a1-3)[Gal(a1-4)Gal(b1-4)GlcNAc(b1-2)Man(a1-6)]Man(b1-4)GlcNAc(b1-4)GlcNAc
# Summary of the method: as §1
# [15] = target: Gal(a1-4)Gal(b1-4)GlcNAc(b1-3)Gal(b1-4)Glc
# Summary of the method: as §1
# Gal(a1-4)GlcNAc = target: Gal(a1-4)GlcNAc
# Summary of the method: as §1
# Gal(a1-6)Glc = target: Gal(a1-6)Glc
# Summary of the method: as §1
# Gal(b1-2)Gal = target: Gal(b1-2)Gal
# Summary of the method: as §1
# Gal(b1-3)Gal = target: Gal(b1-3)Gal
# Summary of the method: as §1
# Gal(b1-3)Gal(b1-4)GlcNAc = target: Gal(b1-3)Gal(b1-4)GlcNAc
# Summary of the method: as §1
# Gal(b1-3)GalNAc = target: Gal(b1-3)GalNAc
# Summary of the method: as §1
# [16] = target: Gal(b1-3)GalNAc(a1-3)[Fuc(a1-2)]Gal(b1-4)Glc
# Summary of the method: as §1
# [17] = target: Gal(b1-3)GalNAc(a1-3)[Fuc(a1-2)]Gal(b1-4)GlcNAc
# Summary of the method: as §1
# Gal(b1-3)GalNAc(b1-3)Gal = target: Gal(b1-3)GalNAc(b1-3)Gal
# Summary of the method: as §1
# [18] = target: Gal(b1-3)GalNAc(b1-3)Gal(a1-4)Gal(b1-4)Glc
# Summary of the method: as §1
# [19] = target: Gal(b1-3)GalNAc(b1-4)Gal(b1-4)Glc
# Summary of the method: as §1
# [20] = target: Gal(b1-3)GalNAc(b1-4)[Neu5Ac(a2-3)]Gal(b1-4)Glc
# Summary of the method: as §1
# Gal(b1-3)GlcNAc = target: Gal(b1-3)GlcNAc
# Summary of the method: as §1
# [21] = target: Gal(b1-3)GlcNAc(a1-3)Gal(b1-4)GlcNAc
# Summary of the method: as §1
# [22] = target: Gal(b1-3)GlcNAc(a1-6)Gal(b1-4)GlcNAc
# Summary of the method: as §1
# Gal(b1-3)GlcNAc(b1-2)Man = target: Gal(b1-3)GlcNAc(b1-2)Man
# Summary of the method: as §1
# [23] = target: Gal(b1-3)GlcNAc(b1-2)Man(a1-3)[Gal(b1-3)GlcNAc(b1-2)Man(a1-6)]Man(b1-4)GlcNAc(b1-4)GlcNAc
# Summary of the method: as §1
binder,measurement,setting,value
OGAA (protein) MVQKESQATLEERESELSSNPAASAGASLEPPAAPAPGEDNPAGAGGAAVAGAAGGARRFLCGVVEGFYGRPWVMEQRKELFRRLQKWELNTYLYAPKDDYKHRMFWREMYSVEEAEQLMTLISAAREYEIEFIYAISPGLDITFSNPKEVSTLKRKLDQVSQFGCRSFALLFADIDHNMCAADKEVFSSFAHAQVSITNEIYQYLGEPETFLFCPTEYCGTFCYPNVSQSPYLRTVGEKLLPGIEVLWTGPKVVSKEIPVESIEEVSKIIKRAPVIWDNIHANDYDQKRLFLGPYKGRSTELIPRLKGVLTNPNCEFEANYVAIHTLATWYKSNMNGVRKDVVMTDSEDSTVSIQIKLENEGSDEDIETDVLYSPQMALKLALTEWLQEFGVPHQY,glycan array binding signal (z-score),Gal(a1-3)Gal(b1-3)GlcNAc,-0.053
same,glycan array binding signal (z-score),[1],-0.106
same,glycan array binding signal (z-score),[2],0.031
same,glycan array binding signal (z-score),[3],-0.057
same,glycan array binding signal (z-score),[4],-0.107
same,glycan array binding signal (z-score),[5],0.142
same,glycan array binding signal (z-score),Gal(a1-3)Gal(b1-4)Glc,-0.092
same,glycan array binding signal (z-score),Gal(a1-3)Gal(b1-4)GlcNAc,0.005
same,glycan array binding signal (z-score),[6],0.001
same,glycan array binding signal (z-score),[7],-0.028
same,glycan array binding signal (z-score),[8],-0.078
same,glycan array binding signal (z-score),[9],-0.074
same,glycan array binding signal (z-score),[10],-0.043
same,glycan array binding signal (z-score),[11],0.644
same,glycan array binding signal (z-score),Gal(a1-3)GalNAc,-0.094
same,glycan array binding signal (z-score),[12],-0.087
same,glycan array binding signal (z-score),[13],-0.007
same,glycan array binding signal (z-score),Gal(a1-4)Gal(b1-4)Glc,-0.062
same,glycan array binding signal (z-score),Gal(a1-4)Gal(b1-4)GlcNAc,-0.077
same,glycan array binding signal (z-score),[14],-0.095
same,glycan array binding signal (z-score),[15],-0.098
same,glycan array binding signal (z-score),Gal(a1-4)GlcNAc,-0.078
same,glycan array binding signal (z-score),Gal(a1-6)Glc,-0.015
same,glycan array binding signal (z-score),Gal(b1-2)Gal,-0.04
same,glycan array binding signal (z-score),Gal(b1-3)Gal,-0.099
same,glycan array binding signal (z-score),Gal(b1-3)Gal(b1-4)GlcNAc,-0.067
same,glycan array binding signal (z-score),Gal(b1-3)GalNAc,-0.085
same,glycan array binding signal (z-score),[16],-0.068
same,glycan array binding signal (z-score),[17],-0.126
same,glycan array binding signal (z-score),Gal(b1-3)GalNAc(b1-3)Gal,-0.119
same,glycan array binding signal (z-score),[18],-0.077
same,glycan array binding signal (z-score),[19],-0.032
same,glycan array binding signal (z-score),[20],-0.101
same,glycan array binding signal (z-score),Gal(b1-3)GlcNAc,-0.061
same,glycan array binding signal (z-score),[21],-0.05
same,glycan array binding signal (z-score),[22],-0.118
same,glycan array binding signal (z-score),Gal(b1-3)GlcNAc(b1-2)Man,-0.105
same,glycan array binding signal (z-score),[23],-0.07

# Reference: the supplement of paper PMC8728848
